The values that follow come from PubChem BioAssay AID1159614 (National Center for Advancing Translational Sciences (NCATS), 2016).

The whole screen tested about 45,000 compounds, of which about 65 (0.1%) were called active. Calls follow the shape of the dose curve; as a rule, active = well fitted activation curve with a large enough effect; inconclusive = small, poorly fitted or top-dose-only effect; inactive = no such curve, though single readings can be large or run the other way. The list shows a part of the results.

The target of the assay is Galactocerebrosidase (Homo sapiens) (UniProt P54803). Nature of the assay: A Novel Cell-Based Assay to Identify Small Molecules for B -Galactocerebrosidase. Also: 0% is about no effect; nearly all actives have a fitted effect of over 65% in size. The settings on record: 145M-Twi-hGALC-G270D cells (Twitcher mouse brain line with human GALC G270D), HMU-beta-Gal fluorescence, 48 h; series mostly up to 57.5 µM; activation: at the top concentration. In outline: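 Live 145M-Twi cells (Twitcher mouse brain-derived, GALC-null) stably expressing human GALC-G270D, with a wild-type GALC line, were compound-treated. Residual GALC activity was then read as fluorescence from 0.1 mM final HMU-β-gal at pH 5.2; higher signal means activation.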
Sequence of UniProt P54803 (P54803 whole entry, looked up): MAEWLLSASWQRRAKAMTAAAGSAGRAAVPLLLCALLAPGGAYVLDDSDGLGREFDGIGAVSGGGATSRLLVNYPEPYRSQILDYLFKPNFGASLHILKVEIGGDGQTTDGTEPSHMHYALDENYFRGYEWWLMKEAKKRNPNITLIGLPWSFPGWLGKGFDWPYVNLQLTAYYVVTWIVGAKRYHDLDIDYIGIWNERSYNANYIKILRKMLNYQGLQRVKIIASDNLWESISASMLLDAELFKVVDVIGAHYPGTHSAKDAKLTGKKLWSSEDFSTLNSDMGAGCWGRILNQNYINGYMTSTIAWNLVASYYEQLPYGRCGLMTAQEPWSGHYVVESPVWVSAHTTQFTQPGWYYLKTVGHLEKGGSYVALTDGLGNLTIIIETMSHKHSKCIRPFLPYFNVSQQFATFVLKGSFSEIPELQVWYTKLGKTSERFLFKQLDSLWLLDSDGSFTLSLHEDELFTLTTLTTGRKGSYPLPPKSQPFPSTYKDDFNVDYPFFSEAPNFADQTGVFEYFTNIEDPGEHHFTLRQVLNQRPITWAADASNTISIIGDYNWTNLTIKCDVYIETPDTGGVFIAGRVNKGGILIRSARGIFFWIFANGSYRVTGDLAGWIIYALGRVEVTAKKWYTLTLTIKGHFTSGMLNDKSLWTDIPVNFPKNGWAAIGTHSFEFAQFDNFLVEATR
Regarding `Cc1ccc(CN(Cc2cccn2-c2nnc(N3CCCC3=O)s2)C(=O)Nc2ccccc2Cl)cc1`, the “activation” value is inactive: -4.59%.
In the case of `Cc1cccc(-n2c3nc(=O)[nH]c(=O)c-3cc3ccc(Cl)cc32)c1C`, the “activation” value was inactive: 1.08%.
Under `CCOc1ccc(-c2cc(C(=O)NCCc3ccc(C)cc3)c3ccccc3n2)cc1` stands inactive: -12.5%.
For `COc1ccc(NC(=O)c2nnn(-c3ccc(C(C)C)cc3)c2C)c(OC)c1`, the “activation” value was inactive: -10.3%.
Consider `CC(C)CCNC(=O)c1cc(-c2cccnc2)nc2ccc(S(=O)(=O)N3CCC(C)CC3)cc12`, for which the “activation” value was inactive: -6.56%.
`O=C(CSc1nc2c([nH]c3ccccc32)c(=O)n1-c1ccccc1)N1CCCCC1`: the “activation” value was inactive: -1.19%.
Turning to `COc1ccc(OC)c(-c2noc(N3CCN(c4cccc(C(F)(F)F)c4)CC3)n2)c1`, the “activation” value is inactive: -0.874%.
The result for `COc1cc(OC)c(NC(=O)c2ccc(-n3cnc4cccnc43)cc2)cc1Cl` reads inactive: -18.8%; that for `O=C(NCCCN1CCN(c2ccc(F)cc2)CC1)Nc1ccccc1Cl`, inactive: -13.3%; that for `CCOc1cccc2sc(N3CCN(C(=O)c4ccco4)CC3)nc12`, inactive: -7.55%.
With `Cn1c(CN2CCOCC2)nc2cc(NC(=O)c3ccccc3[N+](=O)[O-])ccc21`, the “activation” value is inactive: -3.75%.
For `CCOc1ccccc1C(=O)N1CCc2cc(OC)c(OC)cc2C1COc1ccc(OC)cc1` (stereo unspecified), the “activation” value is inactive: -17.8%.
Under `Cc1ccc(-c2nc3cccc(C)n3c2Nc2ccc3c(c2)OCO3)o1` stands inactive: -12.9%; under `Cc1nn(-c2ccccc2)c(OC(=O)c2ccc(Cl)cc2)c1S(=O)(=O)c1ccccc1`, inactive: -11.6%.
The result for `COc1cccc(CNC(=O)Cn2ncn3c(cc4ccccc43)c2=O)c1` reads inactive: -4.54%; that for `COc1ccc(OC)c(NC(=O)c2cc3cccc(OC)c3oc2=O)c1`, inactive: -17.4%.
The result for `CCCNC(=O)c1ccc(Cn2c(SCC(N)=O)nc3ccccc3c2=O)cc1` reads inactive: -7.65%.
Turning to `O=C(c1cc(-c2ccc(Br)cc2)n[nH]1)N1CCN(S(=O)(=O)c2ccc(Cl)s2)CC1`, the “activation” value is inactive: -1.25%.
Turning to `CC(C)CC(=O)Nc1ccc2nc(SCC(=O)N3CCOCC3)sc2c1`, the “activation” value was inactive: -10.9%.
On to `COCCCn1c(SCC(=O)Nc2ccc(OC)cc2)nc2c(sc3ccccc32)c1=O`, for which the “activation” value was inactive: -6.84%.
As to `O=C(CSc1nc(=O)n(CCN2CCOCC2)c2c1CCC2)Nc1ccc(F)cc1F`, the “activation” value is inactive: -15.4%.
The result for `CCC(=O)Oc1c(Sc2ccc(C)cc2)c(C)nn1-c1ccccc1` reads inactive: -17.4%; that for `COc1ccc(CNS(=O)(=O)c2cc3c(cc2Cl)NC(=O)CO3)cc1`, inactive: -12.9%.
Under `CCOC(=O)c1cc(-c2ccc(F)cc2)n(CCC(=O)Nc2cc(OC)cc(OC)c2)c1C` stands inactive: -26.8%; under `O=C(CSc1nc2ncccc2o1)Nc1ccc(Cl)cc1F`, inactive: -13.1%.
The result for `O=C(Nc1ccccc1C(F)(F)F)C1CCN(S(=O)(=O)c2ccccc2)CC1` reads inactive: -15.7%; that for `Cn1c(=O)c2c(nc(N3CCOCC3)n2Cc2ccccc2F)n(C)c1=O`, inactive: -9.32%; that for `O=C(Cn1cc(SCc2ccc(Cl)cc2)c2ccccc21)N1CCOCC1`, inactive: -14.4%.
Turning to `CCCc1nn2c(=O)cc(COC(=O)c3cccc(NC(=O)c4ccc(OCC)cc4)c3)nc2s1`, the “activation” value is inactive: -15.2%.
Under `COc1cc(C2c3c(-c4cc(C)ccc4O)n[nH]c3C(=O)N2Cc2ccco2)cc(OC)c1OC` (stereo unspecified) stands inactive: -8.02%; under `CC(C)Oc1ccc(C(=O)Nc2nnc3n2CCS3)cc1`, inactive: -19%; under `COC(=O)CSc1nc2sc3c(c2c(=O)n1-c1ccccc1)C(C)CCC3` (stereo unspecified), inactive: -36%.
Consider `COc1ccc(NC(=O)CSc2nc3ccccc3n2CC(=O)N(C)C2CCCCC2)cc1`, for which the “activation” value is inactive: -0.298%.
In the case of `COc1ccc(NC(=O)c2cc(S(=O)(=O)N3CCCC(C)C3)cn2C)c(OC)c1` (stereo unspecified), the “activation” value was inactive: -6.12%.
The result for `Cc1cc(Cl)ccc1NS(=O)(=O)c1c(C(=O)N2CCCCCC2)c(C)n(C)c1C` reads inactive: -14.1%.
With `COc1ccc(CN(Cc2ccco2)C(=O)COc2ccccc2Cl)cc1`, the “activation” value is inactive: -12.4%.
Under `COc1ccc(-c2cc(OC(=O)c3cccc(Cl)c3)c3c(C)oc(C)c3c(=O)c2)cc1OC` stands inactive: -15%.
Under `Cc1ccc(C)c(Cn2c3ccccc3c3cnn(CC(=O)NC4CCCCCC4)c(=O)c32)c1` stands inactive: -13.9%; under `Cc1ccc(-c2c3c(=O)n(C)c(=O)n(C)c3c3c(-c4cccc(C)c4)nc4ccccc4n23)cc1`, inactive: -25.6%; under `COC(=O)c1ccccc1NC(=O)c1ccc2c(c1)CCN2S(=O)(=O)c1ccc(Cl)cc1`, inactive: -15.9%.
For the compound `Cc1cc(C)c(S(=O)(=O)NCC2CCC(C(=O)NCCc3ccccc3)CC2)c(C)c1` (stereo unspecified), the “activation” value is inactive: -17.2%.
In the case of `O=c1n(Cc2ccccc2)nc2n1-c1cc(Cl)ccc1OC2`, the “activation” value is inactive: 0.146%.
Under `Cc1c2cnn(-c3ccccc3)c(=O)c2c(C)n1CCCC(=O)Nc1cccc(F)c1` stands inactive: -13.4%.
As for `Cc1c(Cl)cccc1NC(=O)CSc1nc(=O)[nH]c2c1CCC2`, the “activation” value was inactive: -13.8%.
Turning to `O=S(=O)(c1cccc(Cl)c1)n1c(/C=C/c2ccccc2Cl)nc2ccccc21`, the “activation” value is inactive: -14.6%.
Turning to `CCN(CC)c1ccc(NC(=O)Cn2nc3c(cc2=O)CCCC3)c(C)c1`, the “activation” value was inactive: -1.81%.
With `CCc1c(C)sc(NC(=O)c2cc3nc(-c4ccc(OC)cc4)cc(C(F)(F)F)n3n2)c1C(=O)OC`, the “activation” value is inactive: -3.94%.
As for `COc1cccc(-n2c(SCC(=O)Nc3ccc4c(c3)OCO4)nc3c([nH]c4ccccc43)c2=O)c1`, the “activation” value was inactive: -12.7%.
Under `COc1cc(OC)cc(C(=O)N2CCN(C(=O)COc3ccc(C)cc3)CC2)c1` stands inactive: -15%.
The result for `COc1ccc(-n2nc(C(=O)Nc3cc(C)c(Cl)cc3OC)c3c4ccccc4n(C)c3c2=O)cc1` reads inactive: -10.7%.
The result for `Cc1ccccc1NC(=O)CSc1nc(-c2cccs2)nc2cc(=O)[nH]n12` reads inactive: -21.2%; that for `COC1=CC(=O)C[C@@H](C)[C@]12Oc1c(Cl)c(OC)cc(OC)c1C2=O`, inactive: -16%.
On to `CC(NS(=O)(=O)c1ccc2c(c1)CCN2C(=O)CCCC(=O)O)c1ccccc1` (stereo unspecified), for which the “activation” value is inactive: -10.5%.
Regarding `N#Cc1nc(/C=C/c2ccc(F)cc2)oc1N1CCCCCC1`, the “activation” value was inactive: 0.221%.
In the case of `Cc1ccccc1NC(=O)c1sc2nc3n(c(=O)c2c1C)N=C(c1ccccc1)CS3`, the “activation” value is inactive: -1.44%.
Turning to `CN(C)c1ccc(NC(=O)CC(NCc2cccnc2)C(=O)O)cc1` (stereo unspecified), the “activation” value is inactive: -8.08%.
`COc1ccc(OC)c(N(C)S(=O)(=O)c2ccc3c(c2)NC(=O)CC(=O)N3)c1`: the “activation” value was inactive: -10.3%.
The result for `COc1ccc(C)cc1NC1(c2ccccc2)C(=O)c2ccccc2C1=O` reads inactive: -13.3%; that for `COc1ccc2nc(N3CCN(C(=O)CS(=O)(=O)c4ccc(C)cc4)CC3)sc2c1`, inactive: -15.2%; that for `Cc1ccc(-c2cnc(C3CC3)o2)cc1S(=O)(=O)Nc1ccc(F)cc1Cl`, inactive: -9.39%.
The result for `CCOc1ccc(NC(=O)c2cnn3c2NC(C)=C(C(=O)Nc2ccc(Cl)cc2)C3c2ccc(OC)c(OC)c2)cc1` (stereo unspecified) reads inactive: -6.37%.
